# Several values for one entry are separate records, joined by “and”; a condition that tells them apart may be missing. Identical values can stand only once. Counter-ions that a name gives are not always drawn. Hit rate of the full screen: of about 5,800 compounds, about 620 (11%) showed activity.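 How the source made its calls: active = score above a cut-off or among the top three wells of a plate; in these data no inactive exceeds 0.85.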 The entries are a selection whose mix differs from that of the whole data set.
# System: primary human hepatic stellate cells (donor 1)
# Test: scaled lipid accumulation score (0 = DMSO-like, 1 = nortriptyline-like); higher = stronger HSC inactivation (lipid re-accumulation), active = hit call of the paper
# Conditions: 48 h
# [1] = library stock concentration: 10 mM
# [2] = library stock concentration: 3.33 mM
# [3] = library stock concentration: 1 mM
# [4] = library stock concentration: 80 uM
# [5] = library stock concentration: 400 uM
# [6] = library stock concentration: 2 mM
# [7] = library stock concentration: 6.3 mM
compound,measurement,setting,value
CC(=O)Oc1cc2c(s1)CCN(C(C(=O)C1CC1)c1ccccc1F)C2 (configuration not stated),scaled lipid accumulation score,[1],inactive: ≤ 0
CC(=O)Oc1cc2c(s1)CCN(C(C(=O)C1CC1)c1ccccc1F)C2 (configuration not stated) [Prasugrel],scaled lipid accumulation score,[2],inactive: ≤ 0
same,scaled lipid accumulation score,[1],inactive: ≤ 0
CC(C)C(=O)Nc1ccc([N+](=O)[O-])c(C(F)(F)F)c1 [Flutamide],scaled lipid accumulation score,,inactive: 0.003
same,scaled lipid accumulation score,[2],inactive: 0.003
same,scaled lipid accumulation score,library stock concentration: 7.2 mM,inactive: 0.041 and inactive: ≤ 0
same,scaled lipid accumulation score,[1],inactive: ≤ 0 and inactive: ≤ -0.07
CC(C)C(=O)Nc1ccc([N+](=O)[O-])c(C(F)(F)F)c1,scaled lipid accumulation score,[1],inactive: ≤ 0
COc1c(C=O)c(O)cc2c1C(=O)c1ccccc1C2=O [Damnacanthal],scaled lipid accumulation score,library stock concentration: 17.7 mM,inactive: ≤ -0.011
CN(C)[C@@H]1C(=O)C(C(N)=O)=C(O)[C@@]2(O)C(=O)C3=C(O)c4c(O)ccc(Cl)c4[C@@H](O)[C@H]3C[C@@H]12 [Demeclocycline hydrochloride],scaled lipid accumulation score,[1],inactive: ≤ -0.03
CN(C)[C@@H]1C(=O)C(C(N)=O)=C(O)[C@@]2(O)C(=O)C3=C(O)c4c(O)ccc(Cl)c4[C@@H](O)[C@H]3C[C@@H]12 [Demeclocycline HCl],scaled lipid accumulation score,[2],inactive: ≤ 0
same,scaled lipid accumulation score,[1],inactive: ≤ -0.001
CCCCCCN(CCCCCC)C(=O)Cc1c(-c2ccc(Cl)cc2)[nH]c2ccc(Cl)cc12,scaled lipid accumulation score,[1],inactive: ≤ 0
O=C1c2cccc3c2[C@H](CCC3)CN1[C@@H]1CN2CCC1CC2,scaled lipid accumulation score,[1],inactive: 0.359
NCC[C@H](O)C(=O)N[C@@H]1C[C@H](N)[C@@H](O[C@H]2O[C@H](CN)[C@@H](O)[C@H](O)[C@H]2O)[C@H](O)[C@H]1O[C@H]1O[C@H](CO)[C@@H](O)[C@H](N)[C@H]1O [Amikacin hydrate],scaled lipid accumulation score,,inactive: 0.046
NCC[C@H](O)C(=O)N[C@@H]1C[C@H](N)[C@@H](O[C@H]2O[C@H](CN)[C@@H](O)[C@H](O)[C@H]2O)[C@H](O)[C@H]1O[C@H]1O[C@H](CO)[C@@H](O)[C@H](N)[C@H]1O [Amikacin sulfate],scaled lipid accumulation score,library stock concentration: 2.6 mM,inactive: 0.004
same,scaled lipid accumulation score,[1],inactive: 0.02
CCC(O)/C=C/C=O (configuration not stated) [4-hydroxy Hexenal],scaled lipid accumulation score,[3],inactive: ≤ 0
CC(C)CN(C[C@@H](O)[C@H](Cc1ccccc1)NC(=O)O[C@H]1CO[C@H]2OCC[C@H]21)S(=O)(=O)c1ccc(N)cc1 [Darunavir Ethanolate],scaled lipid accumulation score,[2],inactive: ≤ 0
same,scaled lipid accumulation score,[1],inactive: ≤ 0
Cc1cc2c(F)c(Oc3ncnn4cc(OC[C@@H](C)O)c(C)c34)ccc2[nH]1,scaled lipid accumulation score,[2],inactive: 0.023
same,scaled lipid accumulation score,[1],inactive: ≤ 0
Cc1cc2c(F)c(Oc3ncnn4cc(OC[C@@H](C)O)c(C)c34)ccc2[nH]1 [Brivanib],scaled lipid accumulation score,[4],inactive: ≤ -0.009
same,scaled lipid accumulation score,[5],inactive: ≤ -0.009
same,scaled lipid accumulation score,[6],inactive: ≤ -0.009
same,scaled lipid accumulation score,[1],inactive: ≤ -0.009
"CCCCCCCC/C=C\CCCCCCCC(=O)OCC(CO)OC(=O)CCCCCCC/C=C\CCCCCCCC (configuration not stated) [1,2-Dioleoyl-glycerol (18:1)]",scaled lipid accumulation score,[3],inactive: 0.004
O=C1C(SCCO)=C(SCCO)C(=O)c2ccccc21,scaled lipid accumulation score,[1],inactive: 0.156
Cc1cc2nc3c(=O)[nH]c(=O)nc-3n(CC(O)C(O)C(O)COP(=O)(O)O)c2cc1C (configuration not stated),scaled lipid accumulation score,[1],inactive: ≤ 0
COc1cc(/C=C/C(=O)CC(=O)/C=C/c2ccc(O)c(OC)c2)ccc1O [Curcumin],scaled lipid accumulation score,[3],inactive: ≤ 0
same,scaled lipid accumulation score,[2],inactive: ≤ 0
same,scaled lipid accumulation score,[1],inactive: ≤ 0
same,scaled lipid accumulation score,library stock concentration: 13.6 mM,inactive: 0.799
CN1CCC(OC(c2ccccc2)c2ccccc2)CC1 [Diphenylpyraline hydrochloride],scaled lipid accumulation score,,inactive: 0.332
same,scaled lipid accumulation score,[7],inactive: 0.256
same,scaled lipid accumulation score,[1],inactive: 0.235
FC(F)(F)c1cccc(-c2noc(-c3cc(-c4ccccc4)c(C(F)(F)F)s3)n2)c1,scaled lipid accumulation score,[3],inactive: ≤ 0
same,scaled lipid accumulation score,[1],inactive: ≤ -0.001
O=C(Oc1cccc2cccnc12)c1ccccc1 [Benzoxiquine],scaled lipid accumulation score,library stock concentration: 8 mM,inactive: ≤ 0
CCOC(=O)[C@H](CCc1ccccc1)N[C@@H](C)C(=O)N1Cc2cc(OC)c(OC)cc2C[C@H]1C(=O)O [Moexipril hydrochloride],scaled lipid accumulation score,[1],inactive: 0.011
CCOC(=O)[C@H](CCc1ccccc1)N[C@@H](C)C(=O)N1Cc2cc(OC)c(OC)cc2C[C@H]1C(=O)O [Moexipril HCl],scaled lipid accumulation score,[2],inactive: ≤ 0
same,scaled lipid accumulation score,[1],inactive: ≤ 0
CCCCC/C=C/C/C=C/CCCCCCCC(=O)O [Linoelaidic Acid],scaled lipid accumulation score,[3],inactive: 0.006
O=c1[nH]cnc2[nH]ncc12 [Allopurinol Sodium],scaled lipid accumulation score,[2],inactive: ≤ 0
same,scaled lipid accumulation score,[1],inactive: ≤ 0
CN1CCN(C2CCN(C(=O)Nc3cc(Oc4ccc(NC(=O)C5(C(=O)Nc6ccc(F)cc6)CC5)c(F)c4)ccn3)CC2)CC1 [Golvatinib (E7050)],scaled lipid accumulation score,[1],inactive: 0.429
C[N+](C)(C)CCO.[Cl-] [Choline chloride],scaled lipid accumulation score,[1],inactive: ≤ -0.027
same,scaled lipid accumulation score,library stock concentration: 14.3 mM,inactive: ≤ 0
C[N+](C)(C)CCO.[Cl-] [Choline Chloride],scaled lipid accumulation score,[2],inactive: ≤ 0
same,scaled lipid accumulation score,[1],inactive: 0.043
Cn1cc(-c2ccc3nnc(Sc4ccc5ncccc5c4)n3n2)cn1,scaled lipid accumulation score,[4],inactive: 0.027
same,scaled lipid accumulation score,[5],inactive: 0.012
same,scaled lipid accumulation score,[6],inactive: 0.018
same,scaled lipid accumulation score,[2],inactive: ≤ 0
same,scaled lipid accumulation score,[1],inactive: ≤ 0 and inactive: 0.041
Clc1ccc(Nc2nnc(Cc3ccncc3)c3ccccc23)cc1 [Vatalanib (PTK787) 2HCl],scaled lipid accumulation score,[2],inactive: ≤ 0
same,scaled lipid accumulation score,[1],inactive: ≤ 0
Clc1ccc(Nc2nnc(Cc3ccncc3)c3ccccc23)cc1 [Vatalanib],scaled lipid accumulation score,library stock concentration: 5.8 mM,inactive: ≤ -0.006
Cc1cc(O)c2c(c1)C(=O)c1cc(O)cc(O)c1C2=O [Emodin],scaled lipid accumulation score,[2],inactive: ≤ 0
same,scaled lipid accumulation score,[1],inactive: ≤ 0 and inactive: ≤ -0.07
O=C1NC(=O)/C(=C/c2cccc(C(F)(F)F)c2)S1,scaled lipid accumulation score,[5],inactive: ≤ -0.005
same,scaled lipid accumulation score,[6],inactive: ≤ -0.005
same,scaled lipid accumulation score,[2],inactive: ≤ -0.009
same,scaled lipid accumulation score,[1],inactive: 0.01 and inactive: ≤ -0.005
COC(=O)c1ccc2c(C(=Nc3ccc(N(C)C(=O)CN4CCN(C)CC4)cc3)c3ccccc3)c(O)[nH]c2c1,scaled lipid accumulation score,[4],inactive: 0.316
same,scaled lipid accumulation score,[5],inactive: 0.522
same,scaled lipid accumulation score,[6],inactive: 0.258
O=c1[nH]cnc2c1ncn2[C@H]1CC[C@@H](CO)O1 [Didanosine],scaled lipid accumulation score,,inactive: ≤ 0
CN(C/C=C/C#CC(C)(C)C)Cc1cccc2ccccc12,scaled lipid accumulation score,[1],inactive: ≤ 0
CN(C/C=C/C#CC(C)(C)C)Cc1cccc2ccccc12 [Terbinafine HCl],scaled lipid accumulation score,[2],inactive: ≤ 0
same,scaled lipid accumulation score,library stock concentration: 6.9 mM,inactive: ≤ -0.006
same,scaled lipid accumulation score,[1],inactive: ≤ 0
CN(C/C=C/C#CC(C)(C)C)Cc1cccc2ccccc12 [Terbinafine hydrochloride],scaled lipid accumulation score,library stock concentration: 6.1 mM,inactive: ≤ 0
CN(C/C=C/C#CC(C)(C)C)Cc1cccc2ccccc12 [Terbinafine],scaled lipid accumulation score,[2],inactive: ≤ 0
same,scaled lipid accumulation score,[1],inactive: ≤ 0
Nc1nc(O)c2ncn(CCC(CO)CO)c2n1 [Penciclovir],scaled lipid accumulation score,[2],inactive: ≤ 0
same,scaled lipid accumulation score,library stock concentration: 7.9 mM,inactive: ≤ 0
same,scaled lipid accumulation score,[1],inactive: ≤ -0.001
Nc1nc(O)c2ncn(CCC(CO)CO)c2n1,scaled lipid accumulation score,[1],inactive: ≤ 0
Fc1ccc([C@@H]2CCNC[C@H]2COc2ccc3c(c2)OCO3)cc1 [Paroxetine HCl],scaled lipid accumulation score,[1],inactive: 0.355
Fc1ccc([C@@H]2CCNC[C@H]2COc2ccc3c(c2)OCO3)cc1 [Paroxetine hydrochloride hemihydrate (MW = 374.83)],scaled lipid accumulation score,[1],inactive: 0.836
Fc1ccc([C@@H]2CCNC[C@H]2COc2ccc3c(c2)OCO3)cc1 [Paroxetine],scaled lipid accumulation score,[1],inactive: 0.634
Fc1ccc([C@@H]2CCNC[C@H]2COc2ccc3c(c2)OCO3)cc1 [Paroxetine hydrochloride],scaled lipid accumulation score,[1],inactive: 0.808
C[C@H]1COc2c(N3CCN(C)CC3)c(F)cc3c(=O)c(C(=O)O)cn1c23 [Levofloxacin],scaled lipid accumulation score,[2],inactive: ≤ 0
same,scaled lipid accumulation score,[1],inactive: ≤ 0 and inactive: 0.019
C[C@H]1COc2c(N3CCN(C)CC3)c(F)cc3c(=O)c(C(=O)O)cn1c23,scaled lipid accumulation score,[1],inactive: ≤ 0
CN(C)CCCN1c2ccccc2CCc2ccccc21,scaled lipid accumulation score,[1],inactive: 0.493
CN(C)CCCN1c2ccccc2CCc2ccccc21 [Imipramine HCl],scaled lipid accumulation score,library stock concentration: 7.1 mM,inactive: 0.618
CN(C)CCCN1c2ccccc2CCc2ccccc21 [Imipramine hydrochloride],scaled lipid accumulation score,,inactive: 0.652
same,scaled lipid accumulation score,[7],inactive: 0.714
same,scaled lipid accumulation score,[1],inactive: 0.59
"Cc1cccc(C(=O)NCN2CCN(c3ccccc3C#N)CC2)c1 [PD 168,077 maleate]",scaled lipid accumulation score,[1],inactive: ≤ 0
Cc1cccc(C(=O)NCN2CCN(c3ccccc3C#N)CC2)c1,scaled lipid accumulation score,[1],inactive: 0.009
CCC(=O)Nc1cccc(Oc2nc(Nc3ccc(N4CCN(C)CC4)cc3OC)ncc2Cl)c1,scaled lipid accumulation score,[1],active: 0.997
NC(CO)C(=O)NNCc1ccc(O)c(O)c1O (configuration not stated) [Benserazide hydrochloride],scaled lipid accumulation score,,inactive: ≤ 0
same,scaled lipid accumulation score,library stock concentration: 6.8 mM,inactive: 0.015
same,scaled lipid accumulation score,[1],inactive: ≤ 0
NC(CO)C(=O)NNCc1ccc(O)c(O)c1O (configuration not stated) [Benserazide HCl],scaled lipid accumulation score,[2],inactive: ≤ 0
same,scaled lipid accumulation score,library stock concentration: 7.8 mM,inactive: ≤ -0.006
same,scaled lipid accumulation score,[1],inactive: ≤ 0
NCCC[C@H](N)CC(=O)N[C@H]1CNC(=O)[C@H]([C@H]2C[C@H](O)NC(N)=N2)NC(=O)/C(=C/NC(N)=O)NC(=O)[C@H](CO)NC(=O)[C@H](CO)NC1=O [Viomycin sulfate],scaled lipid accumulation score,,inactive: ≤ 0
CCCC(=O)OCOC(=O)C1=C(C)NC(C)=C(C(=O)OC)C1c1cccc(Cl)c1Cl (configuration not stated) [Clevidipine Butyrate],scaled lipid accumulation score,[2],inactive: ≤ 0
same,scaled lipid accumulation score,[1],inactive: ≤ 0
O=C1OC(CN2CCOCC2)CN1/N=C/c1ccc([N+](=O)[O-])o1 (configuration not stated) [Furaltadone hydrochloride],scaled lipid accumulation score,,inactive: ≤ 0
O=C1OC(CN2CCOCC2)CN1/N=C/c1ccc([N+](=O)[O-])o1 (configuration not stated),scaled lipid accumulation score,[1],inactive: ≤ 0
O=C1OC(CN2CCOCC2)CN1/N=C/c1ccc([N+](=O)[O-])o1 (configuration not stated) [Furaltadone HCl],scaled lipid accumulation score,[2],inactive: ≤ 0
same,scaled lipid accumulation score,[1],inactive: ≤ -0.001

# From the supplement of paper PMC9135407
